# Assay results from PubChem BioAssay AID720709 (National Center for Advancing Translational Sciences (NCATS), 2013).
# The campaign covered roughly 360,000 compounds. About 520 (0.14%) were called active. The inconclusive results got no clear call from the source; some entries with a clear call stand among them for comparison. Calls come from the whole dose curve; as a rule, active = well fitted inhibition curve with a large enough effect; inconclusive = small, poorly fitted or top-dose-only effect; inactive = no such curve, though single readings can be large or run the other way. Potencies of inconclusive entries are left out as doubtful fits.
# Target: Rap guanine nucleotide exchange factor 3 (Homo sapiens) (UniProt O95398)
# UniProt O95398, sequence (O95398 whole entry, looked up): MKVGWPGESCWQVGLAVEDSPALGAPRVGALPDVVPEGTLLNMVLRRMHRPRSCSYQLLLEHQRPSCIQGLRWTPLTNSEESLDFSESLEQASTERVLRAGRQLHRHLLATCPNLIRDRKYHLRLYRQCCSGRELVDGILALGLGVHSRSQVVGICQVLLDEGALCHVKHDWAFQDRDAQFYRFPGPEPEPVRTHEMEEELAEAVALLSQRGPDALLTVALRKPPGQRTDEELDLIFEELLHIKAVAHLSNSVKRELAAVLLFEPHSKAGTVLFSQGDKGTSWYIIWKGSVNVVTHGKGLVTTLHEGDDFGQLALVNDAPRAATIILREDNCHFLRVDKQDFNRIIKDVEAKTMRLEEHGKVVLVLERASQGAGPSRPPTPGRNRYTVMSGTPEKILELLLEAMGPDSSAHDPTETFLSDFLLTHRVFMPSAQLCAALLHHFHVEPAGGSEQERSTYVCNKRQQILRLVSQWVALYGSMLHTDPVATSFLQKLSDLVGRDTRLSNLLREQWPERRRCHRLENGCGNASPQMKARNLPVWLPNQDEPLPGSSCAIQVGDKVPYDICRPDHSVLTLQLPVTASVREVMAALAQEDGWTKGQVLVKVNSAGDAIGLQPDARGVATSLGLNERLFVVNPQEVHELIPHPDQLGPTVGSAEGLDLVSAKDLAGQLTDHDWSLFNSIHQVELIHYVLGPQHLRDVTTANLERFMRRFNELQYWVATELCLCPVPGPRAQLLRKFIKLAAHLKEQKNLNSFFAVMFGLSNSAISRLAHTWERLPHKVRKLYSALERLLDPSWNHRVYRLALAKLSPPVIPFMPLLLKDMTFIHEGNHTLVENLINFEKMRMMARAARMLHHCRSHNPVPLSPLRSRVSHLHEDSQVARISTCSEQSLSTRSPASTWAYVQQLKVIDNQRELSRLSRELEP
# Test: qHTS for Antagonist of cAMP-regulated guanine nucleotide exchange factor 3 (EPAC1): primary screen; note: nearly all actives have a fitted effect of over 50% in size;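 for activity change, negative = inhibition: plate controls were vehicle for no effect and positive control for full effect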
# Settings: EPAC1 GEF assay, Rap1b-BODIPY-GDP exchange fluorescence; activity change, negative = inhibition: at 115 µM (top of the series)
# Potency is the fitted concentration of half-maximal effect; tags give direction and shape of the fitted curve.
SMILES,Potency,"activity change, negative = inhibition"
CCOc1ccc(NC(=O)CCc2nnc3ccc(N4CCN(C)CC4)nn23)cc1,"inconclusive [inhibitor, partial curve]",–
CCCSc1nc2c(cnn2-c2ccc(C)c(C)c2)c(=O)[nH]1,"inconclusive [inhibitor, single point]",–
CC(C)Nc1nc(Nc2ccccc2Cl)c2sccc2n1,inactive,–
COc1cc2ccccc2cc1C(=O)NC(=S)Nc1cccc(C(=O)O)c1,active: 44.7 µM,–
CN(C(=O)c1ccc(COc2ccccc2Cl)o1)c1ccccc1,"inconclusive [inhibitor, single point]",–
O=C(C(=O)N1CCN(c2cccc(Cl)c2)CC1)N1CCCCC1,"inconclusive [inhibitor, full curve]",–
CC(=O)Nc1cccc(Oc2nc(NC(C)C)nc3cc(-c4ccccc4)sc23)c1,"inconclusive [inhibitor, partial curve, poor fit]",–
C=CCc1cccc(/C=N/NC(=O)CCC(=O)Nc2ccc(F)cc2)c1O,"inconclusive [inhibitor, full curve]",–
CCOC(=O)NNc1ccc2nonc2c1[N+](=O)[O-],"inconclusive [inhibitor, partial curve]",–
COC(=O)c1c(C)cc(O)cc1O,inactive,–
CC1CN(CC(O)COc2ccc(C(=O)c3ccccc3)cc2)CC(C)O1 (configuration not stated),"inconclusive [inhibitor, single point]",–
O=C(NCC1CCCN1S(=O)(=O)c1cccs1)C(=O)Nc1ccc(F)cc1F (configuration not stated),–,inconclusive: -18.8% [inhibitor]
Cc1ccccc1S(=O)(=O)N1C(c2ccc(Cl)c(Cl)c2)CC=C(C(=O)O)C1c1cccc(Br)c1 (configuration not stated),"inconclusive [inhibitor, single point]",–
COc1cc(/C=C(/Sc2nnc(-c3ccc(F)cc3)o2)C(=O)O)ccc1OC(F)F,"inconclusive [inhibitor, single point]",–
CCN(CC)C(=O)C1CCN(S(=O)(=O)c2ccc3c(c2)CCCN3C(=O)C2CCC2)CC1,"inconclusive [inhibitor, single point]",–
CCc1ccc(N=C2NC(=O)/C(=C/c3ccc(OCC(=O)O)c(OC)c3)S2)cc1,"inconclusive [inhibitor, full curve]",–
CS/C(N)=N/C(=S)Nc1cccc(Cl)c1,"inconclusive [inhibitor, partial curve]",–
Cc1cccc(Oc2nccc(C(F)(F)F)c2C(=O)Nc2ccc(F)cc2F)c1,"inconclusive [inhibitor, single point]",–
COc1ccc(N2CCN(C(=O)c3ccc(CNS(=O)(=O)c4ccc(C)cc4)cc3)CC2)cc1,"inconclusive [inhibitor, partial curve]",–
O=C(Nc1ccc2oc(=O)ccc2c1)c1ccc(-c2ccccc2[N+](=O)[O-])o1,"inconclusive [inhibitor, full curve, poor fit]",–
O=C(CCc1nc2ccccc2s1)Nc1cccnc1,"inconclusive [inhibitor, full curve, poor fit]",–

SMILES,Potency,"activity change, negative = inhibition"
Cc1ccc(S(=O)(=O)N(C)Cc2nc(-c3ccc(Br)cc3)no2)cc1,"inconclusive [inhibitor, single point]",–
O=C(CN1CCC(O)(c2cccc(F)c2)CC1)NCCc1c[nH]c2ccccc12,"inconclusive [inhibitor, partial curve]",–
COc1ccc(-n2c(=O)c3ccccc3n(Cc3ccccc3F)c2=O)cc1OC,"inconclusive [inhibitor, partial curve]",–
O=C(CS(=O)(=O)c1ccccc1)c1cc2ccccc2oc1=O,inactive,–
Cc1ccc(SCCNC(=S)Nc2cc(C)ccc2C)cc1,inactive,–
COc1ccc(C2c3[nH]c4ccccc4c3CCN2CCCn2cccn2)c(C)c1C (configuration not stated),"inconclusive [inhibitor, partial curve, poor fit]",–
Cn1cccc1CC(=O)N/N=C/C=C/c1ccco1,"inconclusive [inhibitor, single point]",–
CNC(=S)N/N=C(\C)c1ccc2c(c1)OCCO2,inactive,–
COCCn1c(-c2ccc3ccccc3c2)nc2c1c(=O)[nH]c(=O)n2CC(C)C,inactive,–
COc1ccccc1CNC(=O)c1cc(-c2ccccc2)n(Cc2cc(C)no2)n1,"inconclusive [inhibitor, partial curve, poor fit]",–
COc1cccc2cc(C(C)N(CCCN3CCOCC3)C(=S)Nc3cc(C)cc(C)c3)oc12 (configuration not stated),"inconclusive [inhibitor, partial curve]",–
COc1ccc2nc(NC(=O)Nc3ccccc3)sc2c1,"inconclusive [inhibitor, partial curve]",–
C[C@H]1COc2cc(N3CCSCC3)ccc2S(=O)(=O)N1,"inconclusive [inhibitor, single point]",–
Cc1cc(/C=N/NC(=O)c2ccc(O)cc2)c(C)n1C1CC1,–,inconclusive: -19.8% [inhibitor]
O=C(Nc1ccc(C(F)(F)F)cc1Cl)c1ccc(Cn2cc(Br)cn2)o1,"inconclusive [inhibitor, partial curve]",–
O=C(NN1C(=O)/C(=C\c2cccnc2)SC1=S)C(c1ccccc1)c1ccccc1,"inconclusive [inhibitor, full curve]",–
Cc1ccc(S(=O)(=O)N2CCCCC2)cc1NC(=O)COC(=O)CN1C(=O)NC2(CC(C)CC(C)(C)C2)C1=O (configuration not stated),"inconclusive [inhibitor, partial curve]",–
COC(=O)c1sc(NC(=O)COc2ccc(OC)cc2)nc1C,inactive,–
C#CC[N+](C)(C)C(C#Cc1ccccc1)CC=C (configuration not stated),"inconclusive [inhibitor, partial curve, poor fit]",–
COc1cccc(NC(=O)Nc2ccc3nc(C)c(C)nc3c2)c1,inactive,–
CCN=c1scc(C)n1/N=C/c1cc(Br)c(O)c(Br)c1,"inconclusive [inhibitor, full curve, poor fit]",–
